# Results from the supplement of paper PMC8728848.
# The other results are listed elsewhere or left out.
# B1: LSL-150 (Laetiporus sulphureus), Q7Z8V1 (protein)
# chain: MTDIYIPPEGLYFRLLGFASRQVIFARNSPSPDVGLSPVNDQATDQYFSLIYGTGEHAGLYAIKSKATGKVLFSRRPAEPYVGQIDGDGRYPDNWFKIEPGKTYLSKYFRLVQPSTGTALVSRTHLQPYFWNHPQTEVFDDQYFTFLFEDHHHHHH
# Legend:
# Assay in all cases: glycan array binding signal (z-score within array); higher = stronger binding
# Settings in all cases: glycan notation: IUPAC condensed, linker removed
# Neu5Ac(a2-3)GalNAc = target: Neu5Ac(a2-3)GalNAc
# Outline: (§1)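 Glycan array binding is given as a within-array Z-score, which can be read as non-binding when negative. The arrays, 3228 of them, came from the Consortium for Functional Glycomics database and were retained only where the protein sequence was available. Z-scores were averaged across arrays of the same protein sequence at different concentrations or buffers and across linkers.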
# [1] = target: Neu5Ac(a2-3)GalNAc(b1-4)GlcNAc
# Outline: as §1
# [2] = target: Neu5Ac(a2-3)[GalNAc(b1-4)]Gal(b1-4)Glc
# Outline: as §1
# [3] = target: Neu5Ac(a2-3)[GalNAc(b1-4)]Gal(b1-4)GlcNAc
# Outline: as §1
# [4] = target: Neu5Ac(a2-3)[GalNAc(b1-4)]Gal(b1-4)GlcNAc(b1-3)GalNAc
# Outline: as §1
# [5] = target: Neu5Ac(a2-3)[Neu5Ac(a2-6)]GalNAc
# Outline: as §1
# Neu5Ac(a2-6)Gal = target: Neu5Ac(a2-6)Gal
# Outline: as §1
# [6] = target: Neu5Ac(a2-6)Gal(b1-3)GlcNAc(b1-3)[Gal(b1-4)GlcNAc(b1-6)]Gal(b1-4)Glc
# Outline: as §1
# Neu5Ac(a2-6)Gal(b1-4)Glc = target: Neu5Ac(a2-6)Gal(b1-4)Glc
# Outline: as §1
# [7] = target: Neu5Ac(a2-6)Gal(b1-4)GlcNAc
# Outline: as §1
# [8] = target: Neu5Ac(a2-6)Gal(b1-4)GlcNAc(b1-2)Man
# Outline: as §1
# [9] = target: Neu5Ac(a2-6)Gal(b1-4)GlcNAc(b1-2)Man(a1-3)Man(b1-4)GlcNAc(b1-4)GlcNAc
# Outline: as §1
# [10] = target: Neu5Ac(a2-6)Gal(b1-4)GlcNAc(b1-2)Man(a1-3)[Gal(b1-4)GlcNAc(b1-2)Man(a1-6)]Man(b1-4)GlcNAc(b1-4)GlcNAc
# Outline: as §1
# [11] = target: Neu5Ac(a2-6)Gal(b1-4)GlcNAc(b1-2)Man(a1-3)[GlcNAc(b1-2)Man(a1-6)]Man(b1-4)GlcNAc(b1-4)GlcNAc
# Outline: as §1
# [12] = target: Neu5Ac(a2-6)Gal(b1-4)GlcNAc(b1-2)Man(a1-3)[GlcNAc(b1-4)][Neu5Ac(a2-6)Gal(b1-4)GlcNAc(b1-2)Man(a1-6)]Man(b1-4)GlcNAc(b1-4)GlcNAc
# Outline: as §1
# [13] = target: Neu5Ac(a2-6)Gal(b1-4)GlcNAc(b1-2)Man(a1-3)[Man(a1-6)]Man(b1-4)GlcNAc(b1-4)GlcNAc
# Outline: as §1
# [14] = target: Neu5Ac(a2-6)Gal(b1-4)GlcNAc(b1-2)Man(a1-3)[Neu5Ac(a2-3)Gal(b1-4)GlcNAc(b1-2)Man(a1-6)]Man(b1-4)GlcNAc(b1-4)GlcNAc
# Outline: as §1
# [15] = target: Neu5Ac(a2-6)Gal(b1-4)GlcNAc(b1-2)Man(a1-3)[Neu5Ac(a2-6)Gal(b1-4)GlcNAc(b1-2)Man(a1-6)]Man(b1-4)GlcNAc(b1-4)GlcNAc
# Outline: as §1
# [16] = target: Neu5Ac(a2-6)Gal(b1-4)GlcNAc(b1-2)Man(a1-3)[Neu5Ac(a2-6)Gal(b1-4)GlcNAc(b1-2)Man(a1-6)]Man(b1-4)GlcNAc(b1-4)[Fuc(a1-6)]GlcNAc
# Outline: as §1
# [17] = target: Neu5Ac(a2-6)Gal(b1-4)GlcNAc(b1-2)Man(a1-6)Man(b1-4)GlcNAc(b1-4)GlcNAc
# Outline: as §1
# [18] = target: Neu5Ac(a2-6)Gal(b1-4)GlcNAc(b1-2)Man(a1-6)[Gal(b1-4)GlcNAc(b1-2)Man(a1-3)]Man(b1-4)GlcNAc(b1-4)GlcNAc
# Outline: as §1
# [19] = target: Neu5Ac(a2-6)Gal(b1-4)GlcNAc(b1-2)Man(a1-6)[GlcNAc(b1-2)Man(a1-3)]Man(b1-4)GlcNAc(b1-4)GlcNAc
# Outline: as §1
# [20] = target: Neu5Ac(a2-6)Gal(b1-4)GlcNAc(b1-2)Man(a1-6)[Man(a1-3)]Man(b1-4)GlcNAc(b1-4)GlcNAc
# Outline: as §1
# [21] = target: Neu5Ac(a2-6)Gal(b1-4)GlcNAc(b1-2)[Neu5Ac(a2-6)Gal(b1-4)GlcNAc(b1-4)]Man(a1-3)[GlcNAc(b1-4)][Neu5Ac(a2-6)Gal(b1-4)GlcNAc(b1-2)[Neu5Ac(a2-6)Gal(b1-4)GlcNAc(b1-6)]Man(a1-6)]Man(b1-4)GlcNAc(b1-4)GlcNAc
# Outline: as §1
# [22] = target: Neu5Ac(a2-6)Gal(b1-4)GlcNAc(b1-2)[Neu5Ac(a2-6)Gal(b1-4)GlcNAc(b1-4)]Man(a1-3)[GlcNAc(b1-4)][Neu5Ac(a2-6)Gal(b1-4)GlcNAc(b1-4)Man(a1-6)]Man(b1-4)GlcNAc(b1-4)GlcNAc
# Outline: as §1
# [23] = target: Neu5Ac(a2-6)Gal(b1-4)GlcNAc(b1-2)[Neu5Ac(a2-6)Gal(b1-4)GlcNAc(b1-6)]Man(a1-6)[Neu5Ac(a2-6)Gal(b1-4)GlcNAc(b1-2)Man(a1-3)][GlcNAc(b1-4)]Man(b1-4)GlcNAc(b1-4)GlcNAc
# Outline: as §1
# [24] = target: Neu5Ac(a2-6)Gal(b1-4)GlcNAc(b1-3)Gal(b1-3)GlcNAc
# Outline: as §1
# [25] = target: Neu5Ac(a2-6)Gal(b1-4)GlcNAc(b1-3)Gal(b1-4)GlcNAc
# Outline: as §1
# [26] = target: Neu5Ac(a2-6)Gal(b1-4)GlcNAc(b1-3)Gal(b1-4)GlcNAc(b1-2)Man(a1-3)[Neu5Ac(a2-6)Gal(b1-4)GlcNAc(b1-3)Gal(b1-4)GlcNAc(b1-2)Man(a1-6)]GalNAc
# Outline: as §1
# [27] = target: Neu5Ac(a2-6)Gal(b1-4)GlcNAc(b1-3)Gal(b1-4)GlcNAc(b1-3)Gal(b1-4)GlcNAc
# Outline: as §1
# [28] = target: Neu5Ac(a2-6)Gal(b1-4)GlcNAc(b1-3)Gal(b1-4)GlcNAc(b1-3)Gal(b1-4)GlcNAc(b1-2)Man(a1-3)[Neu5Ac(a2-6)Gal(b1-4)GlcNAc(b1-3)Gal(b1-4)GlcNAc(b1-3)Gal(b1-4)GlcNAc(b1-2)Man(a1-6)]GalNAc
# Outline: as §1
# [29] = target: Neu5Ac(a2-6)Gal(b1-4)GlcNAc(b1-3)Gal(b1-4)GlcNAc(b1-3)GalNAc
# Outline: as §1
# [30] = target: Neu5Ac(a2-6)Gal(b1-4)GlcNAc(b1-3)Gal(b1-4)GlcNAc(b1-3)[Neu5Ac(a2-6)Gal(b1-4)GlcNAc(b1-3)Gal(b1-4)GlcNAc(b1-6)]GalNAc
# Outline: as §1
# [31] = target: Neu5Ac(a2-6)Gal(b1-4)GlcNAc(b1-3)Gal(b1-4)GlcNAc(b1-6)[Gal(b1-3)]GalNAc
# Outline: as §1
# [32] = target: Neu5Ac(a2-6)Gal(b1-4)GlcNAc(b1-3)Gal(b1-4)[Fuc(a1-3)]GlcNAc(b1-3)Gal(b1-4)[Fuc(a1-3)]GlcNAc
# Outline: as §1
# [33] = target: Neu5Ac(a2-6)Gal(b1-4)GlcNAc(b1-3)GalNAc
# Outline: as §1
# [34] = target: Neu5Ac(a2-6)Gal(b1-4)GlcNAc(b1-3)[Neu5Ac(a2-6)Gal(b1-4)GlcNAc(b1-6)]GalNAc
# Outline: as §1
# [35] = target: Neu5Ac(a2-6)Gal(b1-4)GlcNAc(b1-6)GalNAc
# Outline: as §1
binder,measurement,setting,value
B1,glycan array binding signal (z-score),Neu5Ac(a2-3)GalNAc,-0.212
same,glycan array binding signal (z-score),[1],-0.213
same,glycan array binding signal (z-score),[2],-0.21
same,glycan array binding signal (z-score),[3],-0.209
same,glycan array binding signal (z-score),[4],-0.203
same,glycan array binding signal (z-score),[5],-0.208
same,glycan array binding signal (z-score),Neu5Ac(a2-6)Gal,-0.2
same,glycan array binding signal (z-score),[6],-0.199
same,glycan array binding signal (z-score),Neu5Ac(a2-6)Gal(b1-4)Glc,-0.205
same,glycan array binding signal (z-score),[7],-0.205
same,glycan array binding signal (z-score),[8],-0.211
same,glycan array binding signal (z-score),[9],-0.203
same,glycan array binding signal (z-score),[10],-0.202
same,glycan array binding signal (z-score),[11],-0.214
same,glycan array binding signal (z-score),[12],-0.208
same,glycan array binding signal (z-score),[13],-0.198
same,glycan array binding signal (z-score),[14],-0.204
same,glycan array binding signal (z-score),[15],-0.201
same,glycan array binding signal (z-score),[16],-0.208
same,glycan array binding signal (z-score),[17],-0.206
same,glycan array binding signal (z-score),[18],-0.202
same,glycan array binding signal (z-score),[19],-0.213
same,glycan array binding signal (z-score),[20],-0.21
same,glycan array binding signal (z-score),[21],-0.207
same,glycan array binding signal (z-score),[22],-0.208
same,glycan array binding signal (z-score),[23],-0.209
same,glycan array binding signal (z-score),[24],-0.205
same,glycan array binding signal (z-score),[25],-0.079
same,glycan array binding signal (z-score),[26],0.587
same,glycan array binding signal (z-score),[27],1.15
same,glycan array binding signal (z-score),[28],0.848
same,glycan array binding signal (z-score),[29],-0.122
same,glycan array binding signal (z-score),[30],-0.077
same,glycan array binding signal (z-score),[31],-0.202
same,glycan array binding signal (z-score),[32],-0.197
same,glycan array binding signal (z-score),[33],-0.209
same,glycan array binding signal (z-score),[34],-0.202
same,glycan array binding signal (z-score),[35],-0.203
